Whole data set: some 33,000 sequences, median “E-score (-0.5 to 0.5)” near -0.043, cut for the highest 2% near 0.37. The list shows a part of the results.
These sequences were tested against T1, Upc2 (UniProt Q12151) (assay: PBM E-score (8-mer binding enrichment) (E-score (-0.5 to 0.5)); higher = stronger / more preferred TF binding; most listed sequences are background and not binding sites). Details: protein concentration: 200 nM; construct: GST-full length.
T1 sequence: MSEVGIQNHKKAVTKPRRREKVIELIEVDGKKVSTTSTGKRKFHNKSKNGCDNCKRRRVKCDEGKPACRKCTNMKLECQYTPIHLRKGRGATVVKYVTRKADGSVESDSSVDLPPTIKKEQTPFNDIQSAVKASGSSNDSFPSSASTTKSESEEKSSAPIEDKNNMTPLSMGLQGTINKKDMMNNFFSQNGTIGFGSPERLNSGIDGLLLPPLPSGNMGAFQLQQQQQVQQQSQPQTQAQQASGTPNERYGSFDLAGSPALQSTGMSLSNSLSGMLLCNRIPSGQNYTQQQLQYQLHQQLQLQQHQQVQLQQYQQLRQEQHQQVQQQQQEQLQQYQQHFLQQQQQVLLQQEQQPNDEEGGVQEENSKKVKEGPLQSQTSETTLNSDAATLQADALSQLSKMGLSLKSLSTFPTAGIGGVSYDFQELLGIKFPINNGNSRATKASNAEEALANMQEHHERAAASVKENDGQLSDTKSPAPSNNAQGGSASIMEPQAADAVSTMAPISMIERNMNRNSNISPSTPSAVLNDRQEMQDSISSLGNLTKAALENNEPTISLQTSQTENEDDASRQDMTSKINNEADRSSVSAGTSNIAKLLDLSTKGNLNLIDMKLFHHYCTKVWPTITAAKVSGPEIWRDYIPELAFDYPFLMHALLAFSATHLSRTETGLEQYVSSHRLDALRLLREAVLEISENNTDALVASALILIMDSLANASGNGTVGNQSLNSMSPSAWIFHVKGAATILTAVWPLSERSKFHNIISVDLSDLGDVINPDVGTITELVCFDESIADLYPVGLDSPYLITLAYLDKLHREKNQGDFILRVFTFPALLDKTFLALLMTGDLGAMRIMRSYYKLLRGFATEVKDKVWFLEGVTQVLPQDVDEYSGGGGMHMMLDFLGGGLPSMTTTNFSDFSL
Description: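 Universal 'all 10-mer' protein binding microarrays (Agilent AMADID 015681) probed with GST-tagged S. cerevisiae TFs (full-length or DBD) made by in vitro transcription/translation (PURExpress), about 100-200 nM. Bound TF was detected with fluorescent anti-GST. Each ungapped 8-mer (which stands for itself and its reverse complement) is scored by the PBM enrichment score (E-score), a modified Wilcoxon-Mann-Whitney statistic from -0.5 to +0.5, computed with the Universal PBM Analysis Suite. Scale: above 0.35 generally sequence-specific binding.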

Sequence	PBM E-score
GCCAGAAC	-0.081
CGGGTAGC	-0.0833
ATATAGCC	-0.146
CTTGGCCA	-0.261
ATCTTCCA	-0.214
CGGTTGTC	0.107
GCGACTAA	0.163
ATATCTAC	0.0208
GCCTGTAA	-0.249
AGCTCGAC	-0.017
CCCAGGCC	-0.226
ATTACCTA	-0.0593
AGTTATAG	-0.202
GCCCAGCA	-0.0617
AGTGAGAG	-0.279
CAGAGACG	-0.0255
AGATAACC	-0.147
ACTACCAA	-0.00452
ACCGCGGA	0.049
AGCTTTAC	0.192
AGGAAGAA	-0.179
GAAAGAAC	-0.0116
ACGGGGAC	0.0613
CGTTGACA	0.176
AGACTAGG	-0.0821

Sequence	PBM E-score
ATCTTAGG	-0.24
AACCTCGT	0.372
CCCACAGA	-0.13
GTGGTGGA	0.0837
ATCAGATA	-0.0501
CGGATAGA	0.163
CGATTAGA	0.172
GGTACCTA	-0.117
GAAAGATA	0.00564
GGTGGCCA	-0.268
AATCCGAC	0.069
CGTACTAA	0.297
AGTGGGCG	-0.0881
CGACTGAA	0.184
CTGTACTC	0.00852
ACCCCCCA	-0.26
CGCTCCGA	0.0523
ACAATGGA	-0.0209
ACGCTTCC	-0.0297
GACTAAAC	0.116
CAAGCGTG	-0.183
TCTATACA	0.0829
AATGGGTA	0.226
GCCCCTCC	-0.0822
CCTGCATA	-0.232

Sequence	PBM E-score
CCCAGTAC	-0.0334
AGGACTTA	-0.161
AACGGTAT	0.223
CGCGGATC	-0.113
CGCACAGC	-0.0362
AAGGGGGC	0.0404
AGTGAAGC	-0.0908
GGTAAACA	0.111
AAATCTGG	0.114
AGCTGAAC	-0.00145
AGTTCCCC	-0.191
AAGTAAGG	-0.0201
AAAGCATC	0.0386
TACTCGAA	0.187
ATGGGGAA	0.0333
GTGATCAC	-0.221
AATCGACC	0.0614
GCGACACA	0.00942
CACCAGTC	-0.0748
ATCGTAGG	0.165
ATATAATG	-0.118
ACTGTGGG	-0.199
AGATTGCA	-0.0673
CGTAGATA	0.201
CCGGGCAA	-0.105

Sequence	PBM E-score
CCCGCGTC	-0.0193
GAGTAGCC	-0.0894
TCCTTTAA	-0.00287
CGAGTGAC	0.22
GGGAGACA	-0.188
AATGTGCC	-0.154
GCGTTACC	-0.0432
CCGCGAGC	0.00566
GTGTCGCA	0.0927
TAAGGTAA	0.0415
GCTGCAGC	-0.125
GCGGATTA	0.0243
CGGGTTAC	0.209
ACTTTGCT	-0.0435
CTTCAGGC	-0.201
GAGGTGTA	-0.128
CAAGGGTG	-0.226
GGAACGAA	0.464
ACCCCTTA	-0.155
GTGTAAGA	0.0639
CTAGAGAG	-0.236
CTACCGTC	-0.208
AACGGATC	0.143
CGATTAGC	0.257
ATCATTCA	0.0286

Sequence	PBM E-score
CGCTAGAG	0.00564
CTGCGCGA	-0.0988
ATATGTGG	-0.146
AGACAACT	-0.179
GCTTCGAA	0.0704
CGTCATAC	0.249
GAGAGAGA	-0.0966
GCCTTTAA	-0.0667
AATTCGGC	-0.242
GCCGACGA	-0.0599
ACGTAGAC	0.0773
CGATTCGC	0.131
ACAGTAGC	-0.0133
GATTGCAA	0.00183
AGATGCGC	0.0333
ACTATAAC	-0.121
CGAACTAC	0.0988
CTGAGAGC	-0.15
AGAGGTCC	-0.131
AAATCTTA	0.0972
CTTTCGTC	-0.043
CTGACATA	-0.151
ACTATTCG	0.251
CGGCACTA	-0.142
CCGCATAA	0.121

Sequence	PBM E-score
CCAAGAAG	-0.227
AGGACACT	-0.364
ACCGAGCC	0.2
TACTAGGA	-0.232
CCAATCGG	-0.174
CTCATCCA	-0.255
TTGGGAAA	0.0564
ATCTTACA	0.0167
CCCGGTAG	-0.0851
AGAAAAGC	0.0148
GACGAGAA	0.0864
GGCGCACA	-0.261
CGTAAAGC	0.403
TAATATCA	-0.137
GGGACGAC	-0.244
AGCGACGA	0.185
TACCATAA	-0.014
TACAATAA	-0.0294
GTGCCACA	-0.285
ATGTTGCA	0.0701
AAAGGTCA	-0.169
GGGTAGCA	-0.132
TCACCAGA	-0.157
CCCCGCTA	0.0753
GGTCGTTA	0.358

Sequence	PBM E-score
AGAGACCG	-0.0277
GCCCAATA	-0.0227
ATTGTCAC	-0.051
CCTAACCA	-0.0454
CTTGGAGC	-0.154
GCACCTCC	-0.269
CATGGAGC	-0.272
GCCGTATA	0.48
CATCCGAA	0.134
CGGCCGTC	-0.0655
CACTGCCC	-0.2
AGGCGGCG	0.0757
AAAGCGGA	-0.0717
ACCCCCGG	-0.192
GGAACACA	-0.0493
AAGAGCGC	-0.016
CGTTAAAA	0.364
ACTATCCC	-0.22
CGGGTAAG	0.112
GAGCGGCC	-0.106
ACAAGCGA	0.257
CCTGATAC	0.107

From the supplement of paper PMC3334620
